Reference: the supplement of paper PMC6089552
The campaign covered roughly 3,200 compounds. About 300 (9.4%) showed activity. The list shows a part of the results, in another mix than the full data.

Test system: A673/TR/shEF
Test: cell viability (LOESS-normalised, relative to median of negative controls) (log2 ratio); higher = more viable cells (less compound effect), active = hit call of the paper (over 3 MAD below the median)
Conditions: treatment time: 72 h
Procedure, shortened: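 For three days, A673/TR/shEF Ewing sarcoma cells in 384-well plates (1,500 per well) were treated with library compounds at two or more concentrations or with DMSO controls, after doxycycline had been added or withheld 24 h beforehand to induce EWS-FLI1 shRNA knockdown. Viability was read by CellTiter-Glo luminescence on an Envision reader. The data were LOESS-corrected per plate, divided by the median of negative controls and log2-transformed.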

[1] = 0.103 µM, library screen: screen3, EWS-FLI1 expression: high (no doxycycline)
[2] = 0.103 µM, library screen: screen3, EWS-FLI1 expression: low (doxycycline-induced shRNA knockdown)
[3] = 0.308 µM, library screen: screen3, EWS-FLI1 expression: high (no doxycycline)
[4] = 0.308 µM, library screen: screen3, EWS-FLI1 expression: low (doxycycline-induced shRNA knockdown)
[5] = 0.926 µM, library screen: screen3, EWS-FLI1 expression: high (no doxycycline)
[6] = 0.926 µM, library screen: screen3, EWS-FLI1 expression: low (doxycycline-induced shRNA knockdown)
[7] = 2.8 µM, library screen: screen3, EWS-FLI1 expression: high (no doxycycline)
[8] = 2.8 µM, library screen: screen3, EWS-FLI1 expression: low (doxycycline-induced shRNA knockdown)
[9] = 8.3 µM, library screen: screen3, EWS-FLI1 expression: high (no doxycycline)
[10] = 8.3 µM, library screen: screen3, EWS-FLI1 expression: low (doxycycline-induced shRNA knockdown)
[11] = 25 µM, library screen: screen3, EWS-FLI1 expression: high (no doxycycline)
[12] = 25 µM, library screen: screen3, EWS-FLI1 expression: low (doxycycline-induced shRNA knockdown)
[13] = 0.25 µM, library screen: screen1, EWS-FLI1 expression: high (no doxycycline)
[14] = 0.25 µM, library screen: screen1, EWS-FLI1 expression: low (doxycycline-induced shRNA knockdown)
[15] = 2.5 µM, library screen: screen1, EWS-FLI1 expression: high (no doxycycline)
[16] = 2.5 µM, library screen: screen1, EWS-FLI1 expression: low (doxycycline-induced shRNA knockdown)
[17] = 0.25 µM, library screen: screen2, EWS-FLI1 expression: high (no doxycycline)
[18] = 0.25 µM, library screen: screen2, EWS-FLI1 expression: low (doxycycline-induced shRNA knockdown)
[19] = 2.5 µM, library screen: screen2, EWS-FLI1 expression: high (no doxycycline)
[20] = 2.5 µM, library screen: screen2, EWS-FLI1 expression: low (doxycycline-induced shRNA knockdown)
[21] = 25 µM, library screen: screen1, EWS-FLI1 expression: high (no doxycycline)

Nc1ccn([C@@H]2CS[C@H](CO)O2)c(=O)n1
cell viability (log2) [1]: inactive: 0.125
cell viability (log2) [2]: inactive: 0.0191
cell viability (log2) [3]: inactive: 0.0768
cell viability (log2) [4]: inactive: 0.0559
cell viability (log2) [5]: inactive: 0.0245
cell viability (log2) [6]: inactive: 0.0926
cell viability (log2) [7]: inactive: 0.132
cell viability (log2) [8]: inactive: 0.0391
cell viability (log2) [9]: inactive: 0.0536
cell viability (log2) [10]: inactive: 0.0703
cell viability (log2) [11]: inactive: 0.101
cell viability (log2) [12]: inactive: 0.0951

Cn1cnnc1SCC(=O)N1c2ccccc2CCc2ccccc21
cell viability (log2) [13]: inactive: 0.0935
cell viability (log2) [14]: inactive: 0.0627
cell viability (log2) [15]: inactive: 0.0921
cell viability (log2) [16]: inactive: 0.0613

NCCNC(=O)c1ccc(Cl)cc1
cell viability (log2) [13]: inactive: 0.0791
cell viability (log2) [14]: inactive: 0.0423
cell viability (log2) [17]: inactive: 0.247
cell viability (log2) [18]: inactive: 0.132
cell viability (log2) [15]: inactive: 0.0823
cell viability (log2) [16]: inactive: 0.0523
cell viability (log2) [19]: inactive: 0.247
cell viability (log2) [20]: inactive: 0.168

Cn1ccc2cc3c(cc21)CCN3C(=O)Nc1cccnc1
cell viability (log2) [17]: inactive: 0.134
cell viability (log2) [18]: inactive: 0.0695
cell viability (log2) [19]: inactive: 0.183
cell viability (log2) [20]: inactive: 0.0498

O=C(O)CP(=O)(O)O
cell viability (log2) [17]: inactive: 0.0699
cell viability (log2) [18]: inactive: 0.158
cell viability (log2) [19]: inactive: 0.0879
cell viability (log2) [20]: inactive: 0.103

N#CC(C#N)=C(N)/C(C#N)=C/c1cc(O)c(O)c(O)c1
cell viability (log2) [15]: active: -0.312
cell viability (log2) [21]: active: -0.175

CCCSc1ccc2nc(NC(=O)OC)[nH]c2c1
cell viability (log2) (0.025 µM, library screen: screen2, EWS-FLI1 expression: high (no doxycycline)): inactive: 0.0864
cell viability (log2) (0.025 µM, library screen: screen2, EWS-FLI1 expression: low (doxycycline-induced shRNA knockdown)): inactive: 0.0115
cell viability (log2) [1]: inactive: 0.197
cell viability (log2) [2]: inactive: -0.0327
cell viability (log2) [13]: active: -0.206
cell viability (log2) [14]: inactive: -0.0499
cell viability (log2) [17]: inactive: 0.0348
cell viability (log2) [18]: inactive: 0.051
cell viability (log2) [3]: inactive: 0.0506
cell viability (log2) [4]: inactive: 0.123
cell viability (log2) [5]: inactive: 0.0609
cell viability (log2) [6]: inactive: 0.0788
cell viability (log2) [15]: active: -1.99
cell viability (log2) [16]: active: -1.04
cell viability (log2) [19]: inactive: 0.158
cell viability (log2) [20]: inactive: 0.0631
cell viability (log2) [7]: active: -0.524
cell viability (log2) [8]: inactive: 0.00738
cell viability (log2) [9]: active: -1.81
cell viability (log2) [10]: active: -0.886
cell viability (log2) (25 µM, library screen: screen2, EWS-FLI1 expression: high (no doxycycline)): active: -1.74
cell viability (log2) (25 µM, library screen: screen2, EWS-FLI1 expression: low (doxycycline-induced shRNA knockdown)): active: -0.157
cell viability (log2) [11]: active: -2.99
cell viability (log2) [12]: active: -1.16

O=C(c1ccc(O)cc1)c1ccc(O)cc1O
cell viability (log2) [13]: inactive: 0.0946
cell viability (log2) [14]: inactive: 0.0115
cell viability (log2) [15]: inactive: 0.164
cell viability (log2) [16]: inactive: 0.0705

CCN(CC)CCCCCCCCOC(=O)c1cc(OC)c(OC)c(OC)c1
cell viability (log2) [17]: inactive: 0.168
cell viability (log2) [18]: inactive: 0.124
cell viability (log2) [19]: inactive: 0.116
cell viability (log2) [20]: inactive: 0.102

CC(C)(C)NCC(O)COc1cccc2[nH]c(=O)[nH]c12 (configuration not stated)
cell viability (log2) [17]: inactive: 0.0589
cell viability (log2) [18]: inactive: 0.059
cell viability (log2) [19]: inactive: 0.0885
cell viability (log2) [20]: inactive: 0.0495

O=C(c1ccccc1)c1ccc2n1CCC2C(=O)O (configuration not stated)
cell viability (log2) [1]: inactive: -0.0478
cell viability (log2) [2]: inactive: 0.0104
cell viability (log2) [13]: inactive: 0.0623
cell viability (log2) [14]: inactive: -0.0725
cell viability (log2) [17]: inactive: 0.148
cell viability (log2) [18]: inactive: 0.14
cell viability (log2) [3]: inactive: 0.134
cell viability (log2) [4]: inactive: 0.145
cell viability (log2) [5]: inactive: 0.136
cell viability (log2) [6]: inactive: 0.0768
cell viability (log2) [15]: inactive: 0.0968
cell viability (log2) [16]: inactive: 0.0484
cell viability (log2) [19]: inactive: 0.129
cell viability (log2) [20]: inactive: 0.15
cell viability (log2) [7]: inactive: 0.0954
cell viability (log2) [8]: inactive: 0.0231
cell viability (log2) [9]: inactive: 0.0775
cell viability (log2) [10]: inactive: 0.1
cell viability (log2) [11]: inactive: 0.0572
cell viability (log2) [12]: inactive: 0.0838

COc1c(N2CCNC(C)C2)c(F)cc2c(=O)c(C(=O)O)cn(C3CC3)c12 (configuration not stated)
cell viability (log2) [1]: inactive: -0.0448
cell viability (log2) [2]: inactive: 0.0614
cell viability (log2) [3]: inactive: 0.0837
cell viability (log2) [4]: inactive: 0.0631
cell viability (log2) [5]: inactive: -0.0168
cell viability (log2) [6]: inactive: 0.0143
cell viability (log2) [7]: inactive: 0.0878
cell viability (log2) [8]: inactive: 0.0825
cell viability (log2) [9]: inactive: 0.111
cell viability (log2) [10]: inactive: 0.0829
cell viability (log2) [11]: inactive: 0.159
cell viability (log2) [12]: inactive: 0.0854

OCc1ccccc1O
cell viability (log2) [13]: inactive: 0.052
cell viability (log2) [14]: inactive: 0.0788
cell viability (log2) [15]: inactive: 0.134
cell viability (log2) [16]: inactive: 0.143

COc1ccc(S(=O)(=O)N(CCO)c2ccccc2CN(C)C/C=C/c2ccc(Cl)cc2)cc1
cell viability (log2) (0.025 µM, library screen: screen1, EWS-FLI1 expression: high (no doxycycline)): inactive: 0.202
cell viability (log2) (0.025 µM, library screen: screen1, EWS-FLI1 expression: low (doxycycline-induced shRNA knockdown)): inactive: -0.0138
cell viability (log2) [13]: inactive: 0.226
cell viability (log2) [14]: inactive: 0.0804
cell viability (log2) [15]: active: -0.284
cell viability (log2) [16]: inactive: -0.0574
cell viability (log2) [21]: active: -1.32
cell viability (log2) (25 µM, library screen: screen1, EWS-FLI1 expression: low (doxycycline-induced shRNA knockdown)): active: -0.531

CC(C)CCCC(C)C1CCC2C3CCC4CC(=O)CCC4(C)C3CCC12C (configuration not stated)
cell viability (log2) [13]: inactive: 0.027
cell viability (log2) [14]: inactive: 0.0292
cell viability (log2) [15]: inactive: 0.169
cell viability (log2) [16]: inactive: 0.017

CC1(C)CC2C1CCC1(C)OC2(C)CCC1O (configuration not stated)
cell viability (log2) [13]: inactive: 0.00397
cell viability (log2) [14]: inactive: -0.0939
cell viability (log2) [15]: inactive: 0.0714
cell viability (log2) [16]: inactive: 0.0268
